{"source": "paper PMC4336329", "about": "(PLoS ONE, 2015)", "note": "Hit rate of the full screen: of about 310,000 compounds, about 2,200 (0.71%) showed an effect of 50% or more. Effects have a minus sign here. Some of the results follow.", "data": [{"target": "human ether-à-go-go-related gene (hERG) potassium channel (human, UniProt Q12809)", "sequence (Q12809 whole entry, looked up)": "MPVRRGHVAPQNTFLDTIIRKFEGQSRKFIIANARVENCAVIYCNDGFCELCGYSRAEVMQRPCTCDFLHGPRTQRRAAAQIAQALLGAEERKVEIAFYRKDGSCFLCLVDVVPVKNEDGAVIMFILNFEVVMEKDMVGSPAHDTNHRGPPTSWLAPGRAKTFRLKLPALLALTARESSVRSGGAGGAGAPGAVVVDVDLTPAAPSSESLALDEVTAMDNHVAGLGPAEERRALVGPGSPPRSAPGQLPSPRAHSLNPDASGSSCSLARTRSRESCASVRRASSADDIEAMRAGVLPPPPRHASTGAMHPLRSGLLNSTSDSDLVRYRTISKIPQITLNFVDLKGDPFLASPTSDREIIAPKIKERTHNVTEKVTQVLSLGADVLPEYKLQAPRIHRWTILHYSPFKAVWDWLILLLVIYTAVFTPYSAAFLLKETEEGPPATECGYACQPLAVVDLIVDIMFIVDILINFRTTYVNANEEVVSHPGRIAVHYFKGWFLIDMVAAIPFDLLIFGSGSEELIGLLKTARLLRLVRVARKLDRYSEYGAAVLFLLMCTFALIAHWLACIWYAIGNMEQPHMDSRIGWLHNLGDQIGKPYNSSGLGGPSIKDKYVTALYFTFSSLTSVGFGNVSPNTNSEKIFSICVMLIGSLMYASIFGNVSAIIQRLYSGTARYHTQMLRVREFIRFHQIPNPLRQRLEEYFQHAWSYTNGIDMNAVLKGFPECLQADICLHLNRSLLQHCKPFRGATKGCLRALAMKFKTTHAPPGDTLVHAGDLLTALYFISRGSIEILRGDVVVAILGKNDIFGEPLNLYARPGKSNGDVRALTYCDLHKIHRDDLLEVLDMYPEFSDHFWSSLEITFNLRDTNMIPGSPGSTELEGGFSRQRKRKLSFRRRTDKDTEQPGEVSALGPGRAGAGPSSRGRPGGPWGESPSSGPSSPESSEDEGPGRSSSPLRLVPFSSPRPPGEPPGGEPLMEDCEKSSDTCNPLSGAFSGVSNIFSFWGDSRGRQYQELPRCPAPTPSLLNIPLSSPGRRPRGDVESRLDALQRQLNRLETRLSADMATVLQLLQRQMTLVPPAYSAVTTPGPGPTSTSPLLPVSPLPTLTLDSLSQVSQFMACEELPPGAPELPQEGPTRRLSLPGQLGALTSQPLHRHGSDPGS", "test": "primary screen, population patch clamp on CHO cells stably expressing hERG", "units": {"hERG current change (%, negative = inhibition) at 1uM": "%"}, "values": [{"smiles": "CCN(C(=O)COC(=O)C(Cc1ccccc1)N1C(=O)c2ccccc2C1=O)C1CCS(=O)(=O)C1", "note": "(centres unmarked)", "hERG current change (%, negative = inhibition) at 1uM": -9.49}, {"smiles": "CC1CCc2c(sc(NC(=O)COC(=O)C3CCCO3)c2C#N)C1", "note": "(centres unmarked)", "hERG current change (%, negative = inhibition) at 1uM": 4.76}, {"smiles": "O=C(N/N=C\\c1c(O)ccc2ccccc12)c1ccc(O)cc1", "hERG current change (%, negative = inhibition) at 1uM": 10.7}, {"smiles": "O=C(CS(=O)(=O)Cc1ccccc1)Nc1cccnc1", "hERG current change (%, negative = inhibition) at 1uM": 14.3}, {"smiles": "Cc1c(N2C(=O)CS/C2=N\\N=C\\c2ccc(Br)cc2)c(=O)n(-c2ccccc2)n1C", "hERG current change (%, negative = inhibition) at 1uM": -6.67}, {"smiles": "O=Cc1ccc(Oc2ncccn2)cc1", "hERG current change (%, negative = inhibition) at 1uM": 10.4}, {"smiles": "Cc1cccc(OCC(=O)NCCNC(=O)c2ccncc2)c1", "hERG current change (%, negative = inhibition) at 1uM": 24.1}, {"smiles": "CC(=O)Nc1ccc(S(=O)(=O)N2CCN(CCCOc3ccccc3Cl)CC2)cc1", "hERG current change (%, negative = inhibition) at 1uM": 1.67}, {"smiles": "CCOC(=O)CSc1nc(C2CC2)cc(-c2ccc(Cl)cc2)c1C#N", "hERG current change (%, negative = inhibition) at 1uM": -6.78}, {"smiles": "O=C(CSc1nnc(CNC(=O)c2ccco2)o1)Nc1ccccc1", "hERG current change (%, negative = inhibition) at 1uM": 13.8}, {"smiles": "COCC(=O)Nc1cc(OC)ccc1OC", "hERG current change (%, negative = inhibition) at 1uM": 12.6}, {"smiles": "O=C(OCc1nc2ccccc2s1)c1ccccc1O", "hERG current change (%, negative = inhibition) at 1uM": 10.4}, {"smiles": "CC(=O)c1c(C(C)=O)c(C)n(-c2cccc([N+](=O)[O-])c2)c1C", "hERG current change (%, negative = inhibition) at 1uM": 6.15}, {"smiles": "CSCCn1c(C(C)(C)C)cc(C(=O)O)c1C", "hERG current change (%, negative = inhibition) at 1uM": 16.7}, {"smiles": "CCn1c(SCC(=O)Nc2cccc(OC)c2)nc2ccccc2c1=O", "hERG current change (%, negative = inhibition) at 1uM": -8.15}, {"smiles": "O=C(O)CCC(=O)NNC(=O)c1cccc(Br)c1", "hERG current change (%, negative = inhibition) at 1uM": -1.11}, {"smiles": "OCC(O)C1OC(Nc2ccc(Br)cc2)C(O)C1O", "note": "(centres unmarked)", "hERG current change (%, negative = inhibition) at 1uM": 12}, {"smiles": "Cc1cc(C)n(CCC(=O)N/N=C/c2ccc(O)cc2O)n1", "hERG current change (%, negative = inhibition) at 1uM": 11.4}, {"smiles": "Cc1cccc(NC(=O)c2cc3c(=O)n4ccccc4nc3n(CC(C)C)c2=N)c1", "hERG current change (%, negative = inhibition) at 1uM": -52.2}, {"smiles": "COC(=O)C(C)NC(=S)N1CCN(c2c(F)cc3c(=O)c(C(=O)O)cn(C4CC4)c3c2OC)CC1C", "note": "(centres unmarked)", "hERG current change (%, negative = inhibition) at 1uM": 6.29}, {"smiles": "Cc1ccc2c(c1)N(C(=O)CCC(=O)N1CCC(C(N)=O)CC1)CCO2", "hERG current change (%, negative = inhibition) at 1uM": -1.98}, {"smiles": "CCC(C)NC(=O)c1ccc(NC(=O)CC2SC(N3CCCC3)=NC2=O)cc1", "note": "(centres unmarked)", "hERG current change (%, negative = inhibition) at 1uM": 15.3}, {"smiles": "Cc1ccc(-c2onc3ccc(C4OCCO4)cc23)cc1", "hERG current change (%, negative = inhibition) at 1uM": 10.2}, {"smiles": "COCCCn1c(SCC(=O)N2CC(=O)Nc3ccccc32)nnc1-c1ccoc1C", "hERG current change (%, negative = inhibition) at 1uM": 12.9}, {"smiles": "O=C(Nc1ccc(Cl)cc1F)c1ccc(COc2c(F)c(F)c(F)c(F)c2F)o1", "hERG current change (%, negative = inhibition) at 1uM": 7.18}, {"smiles": "C/C=C\\C(=O)Nc1cccc(C2=NOC3(C2)C[C@@H](C(N)=O)N(C(=O)c2ccc(Cl)cc2)C3)c1", "note": "(some centres unmarked)", "hERG current change (%, negative = inhibition) at 1uM": 6.99}, {"smiles": "N#Cc1c(N)n(CCOC(=O)c2cccc([N+](=O)[O-])c2)c2nc3ccccc3nc12", "hERG current change (%, negative = inhibition) at 1uM": 13.1}, {"smiles": "CC(OC(=O)c1oc2ccccc2c1COc1ccccc1)C(N)=O", "note": "(centres unmarked)", "hERG current change (%, negative = inhibition) at 1uM": 14.7}, {"smiles": "CC(NC(=O)C1CCN(S(=O)(=O)c2ccc(Br)s2)CC1)c1ccccc1", "note": "(centres unmarked)", "hERG current change (%, negative = inhibition) at 1uM": 3.34}, {"smiles": "O=C(/C=C/c1ccc([N+](=O)[O-])cc1)c1cccs1", "hERG current change (%, negative = inhibition) at 1uM": 8.1}, {"smiles": "Cc1c(C)n(Cc2ccccc2)c2ncnc(N)c12", "hERG current change (%, negative = inhibition) at 1uM": 8.97}, {"smiles": "C=CCOc1ccc(C2C(C(=O)c3cccs3)=C(O)C(=O)N2c2nnc(C)s2)cc1", "note": "(centres unmarked)", "hERG current change (%, negative = inhibition) at 1uM": 14}, {"smiles": "CC(C)C(NC(=O)C12CC3CC(CC(C3)C1)C2)C(=O)NC1=NCCS1", "note": "(centres unmarked)", "hERG current change (%, negative = inhibition) at 1uM": 3.24}, {"smiles": "O=C(CSc1nnc(NC(=O)C2CC(=O)N(c3ccc(F)cc3)C2)s1)NC1CCCC1", "note": "(centres unmarked)", "hERG current change (%, negative = inhibition) at 1uM": 6.91}, {"smiles": "COc1ccccc1N/N=C/c1ccc2c(c1)OCO2", "hERG current change (%, negative = inhibition) at 1uM": -3.44}, {"smiles": "O=C(CN1C2CCC1CC(NC(=O)C1CC1)C2)NCc1ccccc1", "note": "(centres unmarked)", "hERG current change (%, negative = inhibition) at 1uM": 11.4}, {"smiles": "C[C@H](NC(=O)c1nc[nH]c1C(=O)N[C@@H](Cc1ccccc1)C(=O)OC(C)(C)C)C(=O)OCc1ccccc1", "hERG current change (%, negative = inhibition) at 1uM": 8.97}, {"smiles": "CCC(CC)c1nnc(NC(=O)CN2C(=O)c3ccccc3C2=O)s1", "hERG current change (%, negative = inhibition) at 1uM": 6.24}, {"smiles": "O=C(CCCOc1ccccc1)NC1CCCc2ccccc21", "note": "(centres unmarked)", "hERG current change (%, negative = inhibition) at 1uM": -4.31}, {"smiles": "CCN1CCN(c2oc(/C=C/c3ccccc3)nc2C#N)CC1", "hERG current change (%, negative = inhibition) at 1uM": -26.4}, {"smiles": "Cc1ccc(-c2noc(Cn3cc(S(=O)(=O)N4CCCC4)ccc3=O)n2)cc1", "hERG current change (%, negative = inhibition) at 1uM": 3.51}, {"smiles": "COC(=O)c1ccc(NC(=O)C2CC(=O)OC2c2ccccc2)cc1", "note": "(centres unmarked)", "hERG current change (%, negative = inhibition) at 1uM": 17.5}, {"smiles": "O=C(NCc1ccccc1)C1=C[C@@H](c2ccc(Br)cc2)C[C@@H](OCc2ccc(CO)cc2)O1", "hERG current change (%, negative = inhibition) at 1uM": -1.02}, {"smiles": "O=C(C1CCC1)N1CCCc2cc(S(=O)(=O)N3CCN(c4ccccc4)CC3)ccc21", "hERG current change (%, negative = inhibition) at 1uM": 5.32}]}]}
